# Assay results as given in PubChem BioAssay AID686979 (National Center for Advancing Translational Sciences (NCATS), 2013).
# About 50,000 (12%) of roughly 420,000 compounds were called active. The shares of active, inactive and inconclusive entries below differ from those in the screen. Calls follow the shape of the dose curve; as a rule, active = well fitted inhibition curve with a large enough effect; inconclusive = small, poorly fitted or top-dose-only effect; inactive = flat fitted curve, though single readings scatter. No potency is given beside an inconclusive call; the fits are too rough.
# Experiment: qHTS for Inhibitors of human tyrosyl-DNA phosphodiesterase 1 (TDP1): qHTS in cells in presence of CPT; also: nearly all actives have a fitted effect of over 55% in size
# Details: chicken DT40 Tdp1-/-;hTDP1 cells + 20 nM CPT, ATP luminescence, 48 h; activity change, negative = growth inhibition: at 46.2 µM (top of the series)
# Procedure, shortened: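 Chicken DT40 Tdp1-/- cells complemented with human TDP1, 400 cells/well, exposed to compounds plus 20 nM camptothecin for at least 48 h at 37 C; viability read as ATP content by CellTiter-Glo luminescence.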
# % is scaled to controls: 0 for no effect and ±100 for the full control effect; potency is read from the fitted curve at half-maximal effect; tags tell the direction and shape of the fitted curve.
SMILES,Potency,"activity change, negative = growth inhibition"
O=C(Nc1ccccc1)C1CCN(S(=O)(=O)c2ccc3c(c2)CCCN3C(=O)C2CCC2)CC1,"inconclusive [inhibitor, single point]",
Cc1ccc(C)c(N2CCN(C(=O)c3ccc(NS(=O)(=O)c4c(C)noc4C)cc3)CC2)c1,"inconclusive [inhibitor, single point]",
CN1CCN(Cc2nc(-c3cccs3)no2)CC1c1ccccc1 (stereo not drawn),,inconclusive: -31.1% [inhibitor]
COC(=O)c1ccc(C(=O)OC)c(NC(=O)CSc2nc(-c3ccco3)cc(C(F)(F)F)n2)c1,"inconclusive [inhibitor, single point]",
CC(C(=O)OCC(=O)c1ccc([N+](=O)[O-])cc1)N1C(=O)C2C3CCC(C3)C2C1=O (stereo not drawn),active: 16.4 µM,
CCOc1ccc2nc(N3C(=O)/C(=C/c4ccc(Cl)cc4)NC3=S)sc2c1,"inconclusive [inhibitor, single point]",
Cc1ccc(CNC(=O)CCCCCn2c(=O)c3sccc3n(CC(=O)C(C)(C)C)c2=O)cc1,"inconclusive [inhibitor, single point]",
CCCC(=O)Nc1ccc2c(c1)nc(CCNC(=O)c1ccccc1)n2C,,inconclusive: -32.4% [inhibitor]
Cc1ccc2c(CN3CCN(c4ccc(Cl)cc4)CC3)cc(=O)oc2c1,inactive,
Cc1cc2c(nc1C)CCCN2C[C@@H](C)O/N=C1/[C@H]2CCn3c(=O)n(-c4ccccc4)c(=O)n3[C@H]2[C@H](O)[C@@H]2O[C@H]12,"inconclusive [inhibitor, single point]",
COc1ccc(Cn2c(CCC(=O)Nc3cc(C)cc(C)c3)nc3cccnc32)cc1,"inconclusive [inhibitor, single point]",
CCN(CC)CCNC(=O)c1cc2c(-c3ccc(Cl)cc3)nn(C)c2s1,"inconclusive [inhibitor, single point]",
O=C(CCSc1ccccc1)Nc1nccs1,inactive,
CCCCCCCCCCCCC(O)C(=O)O (stereo not drawn),,inactive: 14.5% [at 4.12 µM]
COc1ccccc1N1C(=O)c2cccc3c(Cl)ccc(c23)C1=O,"inconclusive [inhibitor, single point]",
CN(C)c1ccnc(-n2cccc2/C=N/OCc2ccccc2)c1C#N,inactive,
CCn1nc(C(=O)OCC(=O)c2ccc(F)cc2)c2ccccc2c1=O,inactive,
COc1ccc(OC)c(NC(=O)C(C)SCc2nc3sc(C)c(C)c3c(=O)[nH]2)c1 (stereo not drawn),"inconclusive [inhibitor, partial curve]",
C/C(=N\Nc1cccc(Cl)c1)C1(C)N(O)C(C)(C)C(c2ccco2)=[N+]1[O-] (stereo not drawn),"inconclusive [inhibitor, single point]",
COc1ccccc1-n1c(SCC(=O)N2CCCCC2)nc2cccnc21,inactive,
CN(Cc1ccccc1)C(=O)c1[nH]cnc1C(=O)Nc1ccc(Cl)cc1,"inconclusive [inhibitor, single point]",
Nc1ncnc2c1ncn2[C@@H]1O[C@H](C(=O)Nc2ccc(C(=O)N3CCCCC3)cc2)[C@@H](O)[C@H]1O,inactive,

SMILES,Potency,"activity change, negative = growth inhibition"
c1cncc(-c2nn3c(Cn4cnc5ccccc54)nnc3s2)c1,"inconclusive [inhibitor, single point]",
C/C(=N\OC(=O)Nc1ccccc1)c1cnn(-c2cc(C(F)(F)F)cc(C)n2)c1C,inactive,
Cc1ccc(-c2csc(C3=C(O)CN(NC(=O)c4ccco4)C3=N)n2)cc1,inactive,
CC1CC(C)CN(CCCNC(=O)c2ccc3c(c2)N(Cc2ccccc2)C(=O)c2ccccc2S3=O)C1 (stereo not drawn),"inconclusive [inhibitor, single point]",
COc1ccc(CNC(=O)c2cc(C3CC3)nc3c2cnn3C(C)C)cc1OC,"inconclusive [inhibitor, single point]",
COc1cccc(CN2CCN(Cc3ccc(O)cc3)CC2CCO)c1 (stereo not drawn),inactive,
O=C(Cc1ccccc1[N+](=O)[O-])NCC(O)c1ccc2c(c1)OCO2 (stereo not drawn),inactive,
O=C(CN1CCN(C2CCCCC2)CC1)Nc1ccccc1-c1ccccc1,"inconclusive [inhibitor, single point]",
O=C1NCCN(CC2CCN(CCc3ccccc3)CC2)C1=O,inactive,
Cc1ccc(C)c(C(=O)CC2(O)C(=O)N(C)c3ccccc32)c1 (stereo not drawn),inactive,
COc1cc(NC(C)CCCN)c2nc(C)ccc2c1Oc1ccc(F)cc1 (stereo not drawn),active: 25.9 µM,
CSc1ccc(CN2CCC(C)(Oc3ccccc3F)C2)cc1 (stereo not drawn),"inconclusive [inhibitor, single point]",
Cc1cccc(NC(=O)c2ccc(S(=O)(=O)N3CCC(C)CC3)cc2)n1,"inconclusive [inhibitor, partial curve, poor fit]",
Cc1ccc(Cl)cc1N(C)C(=O)c1sc2nc3n(c(=O)c2c1C)CCCC3,"inconclusive [inhibitor, single point]",
Cc1cc(C)c2c(N)c(C(=O)c3ccc(Cl)cc3Cl)sc2n1,"inconclusive [inhibitor, single point]",
Cc1ccc(-n2ncc(C(=O)NCC3CCN(C4CCCC4)C3)c2C2CCN(C(=O)OC(C)(C)C)CC2)cc1C (stereo not drawn),"inconclusive [inhibitor, single point]",
CCCn1nc(C(=O)Nc2ccc3c(c2)OCCO3)c2ccccc2c1=O,"inconclusive [inhibitor, single point]",
CN(C)C(CNC(=O)c1cccc(NS(=O)(=O)c2ccc(Br)cc2)c1)c1ccco1 (stereo not drawn),"inconclusive [inhibitor, partial curve]",
O=C(Cn1sc2ccccc2c1=O)Nc1ccc(F)cc1,active: 2.91 µM,
COc1ccc(Nc2ncc(C(=O)Nc3cccc(OC)c3)c3ccccc23)cc1,"inconclusive [inhibitor, single point]",
CCCSc1nnc(Cn2c(=O)sc3ccccc32)n1-c1ccccc1,"inconclusive [inhibitor, single point]",
